Source: the BET-seq Pho4 binding data (Le et al. 2018)
This is one part of the list. The energies were worked out here from pooled read counts, against the library average; single values are noisy.

Biological target: T1, Pho4 (S. cerevisiae) (UniProt P07270)
T1 sequence: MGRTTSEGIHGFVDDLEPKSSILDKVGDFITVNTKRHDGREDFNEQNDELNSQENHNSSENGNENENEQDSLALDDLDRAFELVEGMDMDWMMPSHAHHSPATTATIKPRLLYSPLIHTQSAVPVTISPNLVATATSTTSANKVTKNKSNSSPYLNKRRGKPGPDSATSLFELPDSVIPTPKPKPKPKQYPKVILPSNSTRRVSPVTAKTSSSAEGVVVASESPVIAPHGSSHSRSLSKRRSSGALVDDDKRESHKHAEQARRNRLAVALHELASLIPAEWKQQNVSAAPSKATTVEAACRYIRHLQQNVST
Test: relative binding free energy (BET-seq); higher = weaker binding
Conditions: reference: library average

| Sequence | relative binding free energy |
| --- | --- |
| TTAGGCACGTGGTTGT | -0.08 kcal/mol |
| TAGAGCACGTGGCAGT | -0.1 kcal/mol |
| GTCGTCACGTGTGATG | 0.18 kcal/mol |
| GTGGACACGTGTAATT | 0.07 kcal/mol |
| TCAGGCACGTGTCTTG | -0.09 kcal/mol |
| TATAGCACGTGGGGTT | -0.23 kcal/mol |
| CGATTCACGTGGTTTG | 0.22 kcal/mol |
| ATGCGCACGTGTAGTT | 0.04 kcal/mol |
| GTGGACACGTGAGCGT | 0.14 kcal/mol |
| TTTCGCACGTGGGTAT | -0.18 kcal/mol |
| ATTGGCACGTGATGAC | 0.04 kcal/mol |
| TGGGGCACGTGCTAGC | -0.21 kcal/mol |
| ATTCTCACGTGGTATT | 0.13 kcal/mol |
| TTTGTCACGTGAGACT | 0.26 kcal/mol |
| ACTAACACGTGTGGGT | -0.02 kcal/mol |
| TTAGTCACGTGTAATT | 0.16 kcal/mol |
| GGTTTCACGTGAGGGC | 0.51 kcal/mol |
| TTTGTCACGTGGTAAT | 0.08 kcal/mol |
| AGCTGCACGTGTGGGC | -0.1 kcal/mol |
| TTGAGCACGTGATGGT | 0.12 kcal/mol |
| TATTGCACGTGGATCT | 0.01 kcal/mol |
| GGCAGCACGTGTGAGA | 0.09 kcal/mol |
| TGTAGCACGTGTGTTA | -0.09 kcal/mol |

| Sequence | relative binding free energy |
| --- | --- |
| CGAGGCACGTGGTCTG | -0.22 kcal/mol |
| GGTGTCACGTGAGAAA | 0.31 kcal/mol |
| TGCTGCACGTGTTAAG | 0.08 kcal/mol |
| ATAAGCACGTGGAGGC | -0.01 kcal/mol |
| TTAGGCACGTGTTTCA | -0.23 kcal/mol |
| TGACGCACGTGTAATT | 0.1 kcal/mol |
| ATTCACACGTGTAGTG | 0.14 kcal/mol |
| CGGGGCACGTGGCGTT | -0.17 kcal/mol |
| TTGTGCACGTGACTTG | 0.16 kcal/mol |
| GGGCTCACGTGGGCTG | 0.23 kcal/mol |
| CACGGCACGTGGGTGT | -0.26 kcal/mol |
| ATTAACACGTGTAGTT | 0.02 kcal/mol |
| CTTCTCACGTGGTATG | 0.22 kcal/mol |
| CCGGACACGTGAGGTG | 0.27 kcal/mol |
| CTATGCACGTGATATG | 0.08 kcal/mol |
| CATGCCACGTGGTTTG | -0.05 kcal/mol |
| GGGAGCACGTGGTCAT | -0.12 kcal/mol |
| TGCTGCACGTGGGGTC | -0.16 kcal/mol |
| TTTTCCACGTGCGTTT | 0.06 kcal/mol |
| GGTGTCACGTGAAGTC | 0.37 kcal/mol |
| GGATGCACGTGTGACG | 0.11 kcal/mol |
| GATTGCACGTGGCGAT | -0.05 kcal/mol |
| GCAAGCACGTGGGGGA | -0.27 kcal/mol |

| Sequence | relative binding free energy |
| --- | --- |
| AGTTGCACGTGAGTTT | 0.2 kcal/mol |
| ATACGCACGTGGTGGT | -0.19 kcal/mol |
| GGCTACACGTGTGATT | 0.33 kcal/mol |
| AGGTGCACGTGGTAGT | -0.14 kcal/mol |
| CGGGGCACGTGGACGT | -0.05 kcal/mol |
| CTTTTCACGTGTGTTA | 0.18 kcal/mol |
| TTCATCACGTGGTGTG | 0.04 kcal/mol |
| GGGGCCACGTGGTGAC | -0.12 kcal/mol |
| GGTGACACGTGGGTGA | -0.06 kcal/mol |
| TTTGGCACGTGGCCAG | -0.08 kcal/mol |
| GGAGGCACGTGGAGTG | -0.12 kcal/mol |
| AGGAGCACGTGTTGTT | -0.09 kcal/mol |
| TTTTACACGTGGTGGC | 0.1 kcal/mol |
| GTTTCCACGTGTGAAT | 0.22 kcal/mol |
| AGTTGCACGTGGTGAA | -0.04 kcal/mol |
| TTCGACACGTGGGAGG | 0.09 kcal/mol |
| GGTAACACGTGATAGA | 0.24 kcal/mol |
| GTGTACACGTGGATAT | -0.06 kcal/mol |
| TCAGTCACGTGGCGGG | 0 kcal/mol |
| CGTAGCACGTGGAGTA | -0.18 kcal/mol |
| TAGGCCACGTGGAATG | 0.02 kcal/mol |
| CGGTGCACGTGTGTGC | -0.05 kcal/mol |
| GGGAGCACGTGTCAGG | -0.2 kcal/mol |

| Sequence | relative binding free energy |
| --- | --- |
| TTTTACACGTGTGAAT | 0.08 kcal/mol |
| GGACGCACGTGGTGCG | -0.07 kcal/mol |
| TAGAACACGTGCGGGG | -0.13 kcal/mol |
| CGTTACACGTGATAGG | 0.27 kcal/mol |
| ATAGTCACGTGGGCGT | -0.11 kcal/mol |
| AAGCGCACGTGTTGTA | 0 kcal/mol |
| AGGTTCACGTGTTTGA | 0.29 kcal/mol |
| GATTGCACGTGGGTGT | -0.15 kcal/mol |
| GGTGACACGTGTACTT | 0.19 kcal/mol |
| TATGTCACGTGTGAGA | 0.13 kcal/mol |
| CAGTGCACGTGGGGGA | -0.12 kcal/mol |
| ACTTGCACGTGGGGCT | -0.17 kcal/mol |
| TGGGGCACGTGAAATG | 0.11 kcal/mol |
| GGTGACACGTGGGCTA | -0.11 kcal/mol |
| GGTAACACGTGACGGT | 0.15 kcal/mol |
| ATCCTCACGTGTGGGG | 0.27 kcal/mol |
| GATGTCACGTGGAGTG | 0.03 kcal/mol |
| GGTAACACGTGGTATT | -0.15 kcal/mol |
| GGAGTCACGTGAGTTA | 0.27 kcal/mol |
| AGGGACACGTGAATAG | 0.24 kcal/mol |
| TGGGTCACGTGATGAT | 0.35 kcal/mol |
| AATGTCACGTGGAGGG | 0.08 kcal/mol |
| ATGTACACGTGAGGGT | 0.27 kcal/mol |

| Sequence | relative binding free energy |
| --- | --- |
| GTTACCACGTGATGGG | 0.03 kcal/mol |
| TAGGTCACGTGATACG | 0.18 kcal/mol |
| CGTGTCACGTGTGGGA | 0.09 kcal/mol |
| TACTACACGTGTTTAG | 0.09 kcal/mol |
| AGATTCACGTGCAGTT | 0.26 kcal/mol |
| GGTGTCACGTGGTGTC | 0.03 kcal/mol |
| AAGAGCACGTGGTGAT | -0.03 kcal/mol |
| TATTGCACGTGATGGG | 0.05 kcal/mol |
| ATAAGCACGTGTGTGA | -0.05 kcal/mol |
| GATTGCACGTGCGGTG | 0.06 kcal/mol |
| GGGGCCACGTGGAATT | 0.06 kcal/mol |
| TGTTGCACGTGTGATC | 0.11 kcal/mol |
| ATTAGCACGTGGATTA | 0.1 kcal/mol |
| TGGTTCACGTGGGTGG | 0.18 kcal/mol |
| AGTCTCACGTGGAAGT | 0.27 kcal/mol |
| GTGTTCACGTGGAGTT | 0.19 kcal/mol |
| TCTTACACGTGGGGAT | 0.16 kcal/mol |
| TGGGACACGTGGATAT | 0.07 kcal/mol |
| TGTATCACGTGACAGG | 0.26 kcal/mol |
| AGTAACACGTGTGGTA | -0.06 kcal/mol |
| TGCCGCACGTGGGGCG | -0.34 kcal/mol |
| GTTGTCACGTGGCCGA | 0.13 kcal/mol |
| GAATTCACGTGCGTGT | 0.18 kcal/mol |
